Measured values reported in the supplement of paper PMC4967469.
IC50 is the fitted dose that halves viability relative to control wells, and lower means more sensitive; fits outside the tested doses are given as limits. AUC sums up the same curve from the lowest dose to the 256-fold higher top dose; it is 1 without any effect and falls as sensitivity rises. For part of these data: An inferred top dose was calculated from the reported fits. For part of these data: Drugs with an entry number were screened twice under separate entries, and the two screens often disagree.

Columns and labels:
Test in all cases: Viability of human cancer cell lines after 72 h of drug (GDSC screen)
[1] = compound: CC/C(=C(\c1ccccc1)c1ccc(OCCN(C)C)cc1)c1ccccc1 [Tamoxifen]; settings: top dose 5 µM
Procedure: (§1)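 Human cancer cell lines in 384-well plates, medium with 10% serum, drug for 72 h over a 256-fold dose range (nine 2-fold or five 4-fold steps up to the top dose). Adherent lines were fixed and stained with the nucleic acid dye Syto60, suspension lines read with resazurin; signal relative to control wells, capped at 0 and 100%. One two-parameter sigmoid per drug and line, fitted in a mixed model over all curves with the slope shared within a line.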

[2] = compound: CCCC(=O)OCc1ccc(OC(=O)/C=C(C)/C=C/C=C(C)/C=C/C2=C(C)CCCC2(C)C)cc1 [VNLG/124]; settings: top dose 5.12 µM; top dose inferred
Procedure: as §1

[3] = compound: Cc1c(N)nc([C@H](CC(N)=O)NC[C@H](N)C(N)=O)nc1C(=O)N[C@H](C(=O)N[C@H](C)[C@@H](O)[C@H](C)C(=O)N[C@H](C(=O)NCCc1nc(-c2nc(C(=O)NCCC[S+](C)C)cs2)cs1)[C@@H](C)O)[C@@H](OC1OC(CO)C(O)C(O)C1OC1OC(CO)C(O)C(OC(N)=O)C1O)c1cnc[nH]1 [Bleomycin]
Procedure: as §1

[4] = compound: Cc1ccc(NC(=O)c2ccc(CN3CCN(C)CC3)cc2)cc1Nc1nc(-c2cccnc2)cs1 [Masitinib]; settings: top dose 20 µM
Procedure: as §1

[5] = compound: O=C(/C=C/c1ccc(CN(CCO)CCc2c[nH]c3ccccc23)cc1)NO [LAQ824]; settings: top dose 1.024 µM; top dose inferred
Procedure: as §1

[6] = compound: O=C(Nc1ccc(OC(F)(F)F)cc1)c1sccc1NCc1ccnc2ccccc12 [OSI-930]; settings: top dose 10.24 µM
Procedure: as §1

[7] = compound: O=C(Nc1cccc(Nc2ncc(Br)c(NCCc3cnc[nH]3)n2)c1)N1CCCC1 [BX-912]; settings: top dose 10.24 µM; top dose inferred
Procedure: as §1

[8] = compound: O=S(=O)(O)c1ccc2cc(N=Nc3cc(S(=O)(=O)O)c4cccnc4c3O)ccc2c1 [NSC-87877]; settings: top dose 16 µM; top dose inferred
Procedure: as §1

[9] = top dose 50 µM, screen: GDSC drug entry 1378, top dose inferred
[10] = top dose 64 µM, screen: GDSC drug entry 190

Cell Line	AUC [1]	IC50 [1] [µM]	AUC [2]	IC50 [2] [µM]	AUC [3, 9]	IC50 [3, 9] [µM]	AUC [3, 10]	IC50 [3, 10] [µM]	AUC [4]	IC50 [4] [µM]	AUC [5]	IC50 [5] [µM]	AUC [6]	IC50 [6] [µM]	AUC [7]	IC50 [7] [µM]	AUC [8]	IC50 [8] [µM]
PCI-38 (head and neck, adherent)	0.985	> 5	0.982	> 5.12	0.289	0.792	0.625	8.85	0.933	> 20	0.727	0.283	0.981	> 10.2	0.972	> 10.2	0.986	> 16
RT-112 (bladder, adherent)	0.983	> 5	0.984	> 5.12	0.552	4.39	0.308	1.11	0.932	> 20	0.233	0.01	0.985	> 10.2	0.721	2.86	0.981	> 16
TGBC24TKB (biliary tract, adherent)	0.989	> 5	0.987	> 5.12	0.889	> 50	0.87	53.3	0.93	> 20	0.378	0.0303	0.977	> 10.2	0.973	> 10.2	0.974	> 16
U031 (kidney, adherent)	0.983	> 5	0.979	> 5.12	0.052	< 0.195	0.254	0.765	0.947	> 20	0.466	0.0514	0.976	> 10.2	0.891	> 10.2	0.846	12.3
HCE-4 (oesophagus, adherent)	0.985	> 5	0.99	> 5.12	0.387	1.6	0.213	0.677	0.987	> 20	0.529	0.0761	0.985	> 10.2	0.96	> 10.2	0.904	15.9
VM-CUB-1 (bladder, adherent)	0.984	> 5	0.987	> 5.12	0.137	0.239	0.518	4.46	0.968	> 20	0.585	0.109	0.983	> 10.2	0.989	> 10.2	0.988	> 16
COR-L105 (lung adenocarcinoma, adherent)	0.976	> 5	0.955	> 5.12	0.772	23.8	0.585	7.21	0.879	> 20	0.594	0.123	0.877	> 10.2	0.865	> 10.2	0.979	> 16
NCI-H1573 (lung adenocarcinoma, adherent)	0.99	> 5	0.99	> 5.12	0.983	> 50	0.946	> 64	0.954	> 20	0.773	0.387	0.978	> 10.2	0.979	> 10.2	0.986	> 16
BPH-1 (prostate, adherent)	0.946	> 5	0.982	> 5.12	0.329	0.99	0.083	< 0.25	0.712	5.33	0.349	0.0233	0.673	2.06	0.456	0.479	0.977	> 16
BHY (head and neck, adherent)	0.977	> 5	0.982	> 5.12	0.657	8.53	0.409	2.25	0.885	> 20	0.383	0.0305	0.962	> 10.2	0.89	> 10.2	0.987	> 16
NCI-H2085 (lung adenocarcinoma, adherent)	0.982	> 5	0.965	> 5.12	0.864	49.7	0.415	2.29	0.905	> 20	0.488	0.0593	0.956	> 10.2	0.962	> 10.2	0.986	> 16
HEL (acute myeloid leukaemia, semi-adherent)	0.989	> 5	0.938	> 5.12	0.834	25.3	0.675	11.2	0.859	12.3	0.219	0.0117	0.91	10.2	0.934	> 10.2	0.98	> 16
BEN (non-small cell lung carcinoma, adherent)	0.97	> 5	0.978	> 5.12	0.897	> 50	0.813	41.1	0.936	> 20	0.497	0.0627	0.956	> 10.2	0.954	> 10.2	0.943	> 16
OSC-19 (head and neck, adherent)	0.978	> 5	0.986	> 5.12	0.484	2.82	0.481	3.55	0.973	> 20	0.465	0.0512	0.978	> 10.2	0.917	> 10.2	0.987	> 16
HPAF-II (pancreas, adherent)	0.819	4.05	0.979	> 5.12	0.748	20.6	0.842	> 64	0.93	> 20	0.54	0.0848	0.937	> 10.2	0.98	> 10.2	0.963	> 16
